# Test results published in paper PMC12136788.
# The other results are listed elsewhere or left out.
# B1: 125865521_125865641_1298_3pUTR_ENSMUSG00000033904_ENSMUST00000106557|mouse|control|control (ssRNA)
# RNA: GGGAGUUCUACAGUCCGACGAUCUCUGGAGCAGCGGGAGGAGCAGCUCCUGCAGGCAGGUCUAUCUUAGAAAAGCUAGCUAAGCCUGCCGUGCCCAUGCUGCUUGCUUGUGAAGCACCUUGGAGGAGAACAUUUGACUUAUUACAACAGAGGAUUGAGCAUCA
# B2: 90058951_90059071_3067_3pUTR_ENSG00000197147_ENST00000439853|human|control|control (ssRNA)
# RNA: GGGAGUUCUACAGUCCGACGAUCUAGGGCUAGACACUCAGUUGCUUUAAUAAGACAUUUAGUUAUGGUUCAUCAUAAUAGUCACCCAUUCUUCAUCUUUAUUAACUUAGAAAAUUUUACUUCUCAUUUAAAGCCCUGGAGCAUCAACAGAGGAUUGAGCAUCA
# B3: chr1:46159212:46159213:+_ENSG00000159596_ENST00000372025|hu_mus|hu_hu_hu_mus_True|18_88 (ssRNA)
# RNA: GGGAGUUCUACAGUCCGACGAUCUCUGAUCCCUCCCAAGAAAGCUAGGAAACUGGCUCCAUAAGCCAUCUGAGUGAAAGCUAGGACGGGGAUAUAAGACUUUGUUAUUACCAUGAGCAGUGGUGGAGCAGUAAAGGGGAUUAACAACAGAGGAUUGAGCAUCA
# B4: chr19:37005844:37005845:-_ENSG00000254004_ENST00000523638|hu_hu|FALSE|FALSE (ssRNA)
# RNA: GGGAGUUCUACAGUCCGACGAUCAGAAACUUUUUCACAUUCAUAAGGUUUCUCUCCAGUGUGAUGUUUCUGAUGAGAAAGGAAGUUUUCCUUCUGGCUGAAGGCUUUUCCACAUUUAUUACAUUUAUAUGCCUUCUUUCCUGUCAACAGAGGAUUGAGCAUCA
# B5: chr15:91426070:91426071:+_ENSG00000140564_ENST00000268171|hu_hu|motif|central (ssRNA)
# RNA: GGGAGUUCUACAGUCCGACGAUCGGCAGCCAGGGAGGAGCAGGGCGGACGGUGGGUGUGAGAACGUGGGUAGUCCAGCUGCGGCCCCCAUUAAAAAUACAAAAACAAAUCAUCAGCAUCUAAAGUGAAAUAAUCACAAAGUGACAACAGAGGAUUGAGCAUCA
# B6: chr8:29959424:29959425:+_ENSG00000104660_ENST00000321250|hu_hu|motif|central (ssRNA)
# RNA: GGGAGUUCUACAGUCCGACGAUCGAAGGGCACAUCCAAGCAUCAAAAACAUCAGUCCGAUUGCUCCUCCAAAGGACAAACGGAUCAAAGCUUUGAUGCCUGCCAUGGCGGUGACGUCGCUCCUGGCUCCACGACCCGAGGCGGCAACAGAGGAUUGAGCAUCA
# B7: chr5:92956547:92956548:-_ENSG00000113391_ENST00000395965|hu_mus|motif|central (ssRNA)
# RNA: GGGAGUUCUACAGUCCGACGAUCCCGCUGAAGCCAUAUUGCUUUGACAGUUGCACUCAUCUAGAAAUAAUGCAAAACGCGGUUUAGACGGACACAUCACGACCCUGCGCUGGAGAAAGAAAGCAAUCUAAUGGGGGCCAGGAGCAACAGAGGAUUGAGCAUCA
# B8: chr1:29069439:29069440:+_ENSG00000198492_ENST00000541996|hu_hu|FALSE|FALSE (ssRNA)
# RNA: GGGAGUUCUACAGUCCGACGAUCUGCUGGUUUUGGAGGAGCAAUGGUGGCUGGAGGCAAACUAUUGGAAGCCACGAUGUUACUAGUAAUGGACCCGCUACCAACAGCAGAACCUACAACUUUUGGAACAUUGCUUGCAACUUCCAACAGAGGAUUGAGCAUCA
# B9: 44929261_44929381_2462_CDS_ENSG00000147050_ENST00000377967|human|control|control (ssRNA)
# RNA: GGGAGUUCUACAGUCCGACGAUCUGUUGCUGUUGAAAUGGCUGAAGAUGGUGAAGAGGCAACAGAGUUAUCAGUCUUUGUAUGAACAGCUGGGUGGAUGUUAUUGACUUUGUCACAGGUUCCAGUACCCACAUUGUUAUUGGCCAACAGAGGAUUGAGCAUCA
# B10: chr9:91931296:91931297:+_ENSG00000123975_ENST00000314355|hu_hu|hu_hu_hu_mus_True|78_108 (ssRNA)
# RNA: GGGAGUUCUACAGUCCGACGAUCAGAUUGACGAUCCCCAGCUGCACUUCAUUUUUGUUGAUCUUUUGGAAGAGGUCGUCUAAAGAGAAGAAUAUGCGGUUCUGGCUCAUGAAUCAUGUAAUGAACCCAUCCUAGACUCUGUUGCAACAGAGGAUUGAGCAUCA
# B11: chr5:40767622:40767623:-_ENSG00000132356_ENST00000397128|hu_hu|FALSE|FALSE (ssRNA)
# RNA: GGGAGUUCUACAGUCCGACGAUCAUCUUUGAUUGUGGCCCUCUUCAUGGGAUCCACCUGCAGCAUAUGUUUCAAAAGGCUAAUCACAGAAGGAUUUAAAUAUUGAGGGGUAUAGAAGAUCCCAUCACAUAUCUUCUUAAAAAGCAACAGAGGAUUGAGCAUCA
# B12: chr11:23509083:23509084:-_ENSMUSG00000042208_ENSMUST00000043356|mus_mus|FALSE|FALSE (ssRNA)
# RNA: GGGAGUUCUACAGUCCGACGAUCUGUGCCCCACAAACGCCAAUAAACAUCUCUCCAAGAUUUUAAUUCUUCAAAAAGACUAUUCAAAUAUUCAUGUACAUCCCAGGUUUUAUCUCUUAUGUGGAUGUAGAUAAUAUUUCCAUGCAACAGAGGAUUGAGCAUCA
# B13: chr15:76463590:76463591:-_ENSMUSG00000059323_ENSMUST00000168185|mus_mus|FALSE|FALSE (ssRNA)
# RNA: GGGAGUUCUACAGUCCGACGAUCACGGCUCUGGGCACUACCCACGCCUCGGAUGGCCGCUUGGUAAGCCGCCCGGCAAGCACUUGACGUGGCUGUCUCUCUACUUUUGGGUGGGUCAGGAAUCUUGACUUCACCCUGCUGUGUCAACAGAGGAUUGAGCAUCA
# B14: chr3:176767854:176767855:-_ENSG00000177565_ENST00000430069|hu_hu|hu_hu_hu_mus_False|68_98 (ssRNA)
# RNA: GGGAGUUCUACAGUCCGACGAUCGACAUCCUUGUUACUUGGAACAUCCUGCCCUCCUUCCCGUAUGCAAUGUCUAAGCACGAGCUGCGUAGGGCCACUCGUGCUGUUCUCACUGAGGUUCCAGAUUCUUGCCGUGGAGUCUCCCAACAGAGGAUUGAGCAUCA
# B15: 74150939_74152420_1786_CDS_ENSG00000077809_ENST00000416070|human|control|control (ssRNA)
# RNA: GGGAGUUCUACAGUCCGACGAUCAACUUCAGUGGUACUGUGAGUCAGAAGUUCUGGUCUUUUAAUAACAAAUUUAAUUCGAUUGCCCACUUGAAUGAUUUUUUCCAGCCUUGGGAUUCCAUACCAUGAGGGACUUCGGAAAGGCAACAGAGGAUUGAGCAUCA
# B16: chr2:168009416:168009417:-_ENSMUSG00000051149_ENSMUST00000088001|perfect_dup|motif|central (ssRNA)
# RNA: GGGAGUUCUACAGUCCGACGAUCCAUAUGGUUGAGCAGAGUAUCUGUGGGUAAAUAGCGAUUACAGUAGAGGCAUUUGCGGGUAAAAUUGUGUAUUUUCAUAAUGUAGUUGGCUACUGCUGGGACUUUCUCAGCUUUAUGUUCCAACAGAGGAUUGAGCAUCA
# B17: chr17:64801638:64801639:+_ENSG00000154229_ENST00000413366|hu_mus|hu_hu_hu_mus_False|18_98 (ssRNA)
# RNA: GGGAGUUCUACAGUCCGACGAUCUAUAUAUAUAUAUAUAUACACACACAUAUAUAGUAAAACCCUAGUUAAACGUGUAAAGUAGCCAUUCAUUUUUAAAAUUACAUCUACAUUAAAAAAGUAAUCUAUCUGAUAGAGUGCCAGCAACAGAGGAUUGAGCAUCA
# B18: chr2:210598762:210598763:+_ENSG00000078018_ENST00000392194|hu_mus|motif|central (ssRNA)
# RNA: GGGAGUUCUACAGUCCGACGAUCGCAAAACAAUCACUAUACAGCAACAAAUACAUUUGCAAAUUGAUUGAAAAACAUGAACGGACGGCAACCAGCCAUUGAAGAAAUACCUUUCUAUGGUAACAGGCUCUAGAAUUAUCAGAACAACAGAGGAUUGAGCAUCA
# B19: 10357289_10363325_2175_CDS_ENSG00000054523_ENST00000377093|human|control|control (ssRNA)
# RNA: GGGAGUUCUACAGUCCGACGAUCUUGCAACUUGCUGGGAGGUAGCUUUUCUCUCAGAGAAGUAAUCAGUUUCCAGCUCUCUUCACACGACCUCUUGUCAGAAUCGUCCCCGCUAUCAGAAUCCGCGUCCAGUCUCUGCUGCUCCAACAGAGGAUUGAGCAUCA
# B20: 10098463_10102494_2252_CDS_ENSMUSG00000056763_ENSMUST00000071087|mouse|control|control (ssRNA)
# RNA: GGGAGUUCUACAGUCCGACGAUCUCUUUGUCUCUUUUCCUCAAUCUGAAAACGAAGAAAAUUCUUGUAUAAUUCUUGCUGUUUAAUCUGAAGCUCGCUGAGUGGCUCACCAAAUGUGUUUCCCCGGGCAAAAGGAGAGCUUUGCAACAGAGGAUUGAGCAUCA
# B21: chr2:179988524:179988525:-_ENSG00000187231_ENST00000428443|hu_hu|motif|central (ssRNA)
# RNA: GGGAGUUCUACAGUCCGACGAUCUAAAGUUUGCUGAAUCGAUGCUCCAUCAGCUGGUGCUACAUCUACGCACAACAUCCCGGAUAAGCCAUCCAACUGCUGAGACAAAUCUUGGGCAACACCAUGAAAUUCAAGAGCUGCUUGCAACAGAGGAUUGAGCAUCA
# B22: 41139090_41139210_2337_3pUTR_ENSMUSG00000036241_ENSMUST00000040008|mouse|control|control (ssRNA)
# RNA: GGGAGUUCUACAGUCCGACGAUCCGAAUCUUAAGCCCUAUCCUUGAAGUCUGGCUUUACUUAGACAGUUUGCUAAACAAAACCCUCUUUCAAGUCUAGGAUGAAGCUACCGGAGCUCAGGCUUGGGGGAGCCACGUGUGACUGCAACAGAGGAUUGAGCAUCA
# Target: T1, UNK ZnF1-3 (human, UniProt Q9C0B0 31-174)
# T1 sequence: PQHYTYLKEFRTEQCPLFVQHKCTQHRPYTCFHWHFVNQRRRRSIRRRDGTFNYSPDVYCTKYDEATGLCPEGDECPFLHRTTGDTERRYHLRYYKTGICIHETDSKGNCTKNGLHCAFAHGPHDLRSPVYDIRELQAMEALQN
# Assay: nsRBNS (natural sequence RNA bind-n-seq); RBNS binding buffer (assumed for nsRBNS): 25 mM Tris pH 7.5, 150 mM KCl, 3 mM MgCl2, 0.01% Triton X-100, 500 ug/ml BSA, 20 U/ml SUPERase-In, 4 C; UNK is unkempt and MSI1 is Musashi-1; names of the RNAs are library labels; protein concentration not given here; high values mean tight binding
row,Binder,binding signal [enrichment R]
1,B1,0.805
2,B2,1.09
3,B3,1.56
4,B4,0.471
5,B5,1.94
6,B6,1.49
7,B7,1.35
8,B8,1.12
9,B9,1.56
10,B10,0.901
11,B11,1.46
12,B12,0.932
13,B13,0.584
14,B14,0.676
15,B15,1.15
16,B16,2.18
17,B17,1.95
18,B18,1.64
19,B19,0.843
20,B20,1.06
21,B21,1.16
22,B22,0.584
